Measurements: the supplement of paper PMC3334620
In all, about 33,000 sequences were measured (“E-score (-0.5 to 0.5)”: median about -0.041, highest 2% from about 0.37 on). The list shows a part of the results.

What follows are sequences tested against T1, Ecm22 (UniProt Q05958) (assay: PBM E-score (8-mer binding enrichment) (E-score (-0.5 to 0.5)); higher = stronger / more preferred TF binding; most listed sequences are background and not binding sites). Details: protein concentration: 200 nM; construct: GST-full length.
T1 sequence: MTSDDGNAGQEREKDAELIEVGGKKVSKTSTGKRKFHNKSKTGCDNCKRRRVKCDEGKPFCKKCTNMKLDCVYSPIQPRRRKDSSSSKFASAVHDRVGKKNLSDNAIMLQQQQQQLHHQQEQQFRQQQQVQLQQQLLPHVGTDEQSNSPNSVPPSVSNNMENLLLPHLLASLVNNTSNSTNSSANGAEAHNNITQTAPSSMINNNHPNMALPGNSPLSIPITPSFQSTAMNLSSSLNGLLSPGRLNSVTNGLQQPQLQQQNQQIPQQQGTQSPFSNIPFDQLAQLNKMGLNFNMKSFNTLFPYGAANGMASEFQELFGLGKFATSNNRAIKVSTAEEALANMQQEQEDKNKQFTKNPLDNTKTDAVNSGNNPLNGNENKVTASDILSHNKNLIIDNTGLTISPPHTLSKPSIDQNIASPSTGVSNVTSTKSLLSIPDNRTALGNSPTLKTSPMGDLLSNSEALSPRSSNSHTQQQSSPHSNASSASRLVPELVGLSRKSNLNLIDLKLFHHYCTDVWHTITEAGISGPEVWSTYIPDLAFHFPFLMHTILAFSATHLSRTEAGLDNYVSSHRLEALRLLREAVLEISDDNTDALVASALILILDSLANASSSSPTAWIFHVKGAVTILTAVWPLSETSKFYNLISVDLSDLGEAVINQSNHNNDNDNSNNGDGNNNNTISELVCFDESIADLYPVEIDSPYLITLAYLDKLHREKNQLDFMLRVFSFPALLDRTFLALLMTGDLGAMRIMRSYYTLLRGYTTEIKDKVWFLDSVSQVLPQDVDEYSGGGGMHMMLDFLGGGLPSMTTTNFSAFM
Method in brief: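 Using PURExpress in vitro transcription/translation, GST-tagged yeast transcription factors were made in full-length or DNA-binding-domain form. These were applied at about 100-200 nM to double-stranded universal all-10-mer Agilent arrays, and bound protein was detected with fluorescent anti-GST. Scans were normalised with masliner before the Universal PBM Analysis Suite assigned E-scores to ungapped eight-base words pooled with their reverse complements.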

Sequence	PBM E-score
CAATGCGG	-0.081
ATTATGAG	0.0384
ATCCACAG	-0.194
AACGAGGC	0.434
AAAGTTGT	0.116
AGTCTTCA	-0.301
AGTAGGGG	-0.212
GGCTGTGA	-0.188
GAGCAACC	0.0217
ATTGAATA	0.0783
ATTAGACG	-0.0592
CGAACGGC	0.284
GCATGACA	-0.218
ATAGACAT	-0.0449
CTTCGGCC	-0.151
GGAGACCC	-0.153
GATTGCCA	0.00775
AACCAAAT	0.075
CTGCGTTA	-0.0491
ATTTACTC	-0.0808
TAAACCAA	-0.144
AGCGTAAT	-0.104
CGGCTGCC	-0.0345
ACGGGCCG	0.239
AGGATGTG	-0.185

Sequence	PBM E-score
GATTTAGC	0.198
TCCAGTCA	-0.288
CGGTATCA	0.0726
CCAACGGG	-0.0935
GACGTCCC	-0.0236
AGAACATG	0.094
AGGTCGGA	-0.0331
TGCTTAAA	0.0143
GCCCTTCA	-0.222
CATGTATC	-0.035
CCTACAGG	-0.161
CCAGCCCG	-0.142
TCTTTCCA	-0.197
AAAGGTAA	0.0533
ATAACAAG	-0.0507
CGATGGAC	0.148
AATTCAAC	0.0992
CTCCGGAA	0.0231
ACTATCCG	0.231
GACTACGC	-0.119
ATATTTGG	-0.0645
CTCACTGA	-0.255
GGGCAGAC	-0.156
CACCGGCC	-0.118
GGCAGTGA	-0.214

Sequence	PBM E-score
AAAAGTTA	-0.0116
GCGTACGC	0.178
ACTTTCGA	0.0118
AATCGGCA	-0.0217
CAAAAGAG	-0.117
GGCCGAAA	-0.0178
CTCCTTGC	-0.0678
AACGAAGA	0.421
CCTATGGC	-0.246
AAACGGTC	0.293
AGAATGGG	-0.127
GCCGCGCA	-0.18
ACTCAGGA	-0.109
GCGGTAAC	0.0639
AAGATCGG	-0.0633
AAAACGTG	-0.0161
ATTACGGA	0.147
GGAAAAGA	-0.11
AGGATCTA	-0.147
GGCCGCAC	-0.221
TCGTAACA	0.425
GATGTAAA	0.0502
AATCCCGT	0.192
TATGATCA	0.177
GATCCGAA	0.246

Sequence	PBM E-score
AGAGGTAA	0.107
AGGGAAAC	0.00272
ATGGAACA	-0.322
CCCTTAGC	-0.246
CACTAAAA	0.0698
CGTTAAAC	0.392
AACGTAAA	0.283
ATAGGTCC	-0.0948
ATGATGTG	-0.256
CGTCAGAC	-0.0294
AGATTTTC	-0.0479
CACGGCAG	0.0104
AACGGCGC	0.219
GTCTTTTA	0.0597
CGTCCGAA	0.144
ACGCGTCT	-0.0361
GACGTCAA	0.0646
GCAAGTGC	-0.203
AGCCCCTG	-0.155
ATAGAAGG	-0.116
AACCCTAA	-0.101
AGTGCCCG	-0.103
CTGCGCTC	-0.0626
AAAGCCGT	0.00607
CTGAATGA	-0.02

Sequence	PBM E-score
ATCTTTTA	0.0457
GCACGGGC	-0.263
CGTGGACA	-0.0844
AACCGTTG	-0.0721
CGCATGCG	0.0792
ACGGTCGA	0.147
ACAGGGCC	-0.0883
CTAGGAAC	0.101
CTACAGCC	-0.292
AAAACTGC	-0.0403
ACTCTAGA	-0.026
ATCTTGGA	-0.0471
ACACTCAT	-0.235
ACGAAGTC	0.279
GCGGCCGC	0.0179
CATGCCCA	-0.21
ACGAAAGG	0.33
CCCTAATC	-0.0893
ATAAACGA	0.484
AGCGTGTG	-0.0603
CAACGACG	0.351
GCATGGAC	-0.211
CTGAATCA	-0.0966
CAGACCGG	-0.125
CGAGACAC	0.115

Sequence	PBM E-score
GTTGTTTA	-0.0563
AGGCCAAC	0.0189
ATATAAAA	0.00487
AGAGGCCG	-0.116
CCGGCACA	-0.157
ACGGTTTA	0.0698
ACTTATCT	-0.0915
ATTGATGC	0.00312
GCATAACA	-0.00291
CGATCGAG	0.171
CACGAGAA	0.143
GACCTAGC	-0.189
GCGGTTAA	-0.0219
CCATCGGA	-0.0249
CTCGTGAA	0.213
GCTTTTAC	0.193
GTGAACGA	0.426
AGGAGGAG	-0.133
CTTTGATA	0.0249
CGGTGTTC	0.0923
CTTGTCTC	-0.117
CAAGATTA	-0.0926
CTCTGTGC	-0.146
CAAAAGAA	-0.00277
CCATGCTC	-0.163

Sequence	PBM E-score
AAAGCCCC	-0.191
CAAAGCAG	-0.125
AGGGGCGC	-0.156
AAGGAGCC	-0.343
AAACTTTC	-0.162
ACTTATAT	0.188
ATCTTTAA	0.123
ACAGGCGT	-0.24
ATACATGG	-0.0898
CAATCCCA	-0.25
CGCTTGAA	0.172
ACGTGAGG	-0.098
ATTAATGA	-0.0944
ATCAGAGG	-0.259
AAACAATC	-0.0512
AATTTACG	0.303
ACCAGTCG	0.169
AAGTCGGC	-0.184
CAGAGAAA	-0.102
ATCGTGTC	0.169
GCTCACAC	-0.123
GGTACGAA	0.486
AGGCGAAT	-0.02
ATGCTGGG	-0.224
GAGATGCA	0.0795

Sequence	PBM E-score
CAAACTAC	-0.0223
AGCTGCCA	-0.171
GCTCCCAC	-0.22
CGTTCCGC	0.458
CGCAACAG	-0.15
CCCACTTA	-0.15
CCAGATCG	0.079
ACATAGAA	-0.102
ATTTTCAA	-0.0671
AAGACAAA	-0.00529
CAGCGGAC	0.0106
ATACCTCA	-0.105
ATTACAAC	-0.0304
CTTTGATC	-0.186
CACTAAAG	-0.021
TAAAGGTA	-0.0447
CTGGATTC	-0.0312
ACTTCCTC	-0.0675
CAGCCCTG	-0.258
TCCCGTAA	0.224
CGACGCAG	0.166
AGAGAAAG	-0.136
GCTGAAGA	-0.0949
AACTGCAC	-0.114
AACAGCTG	-0.174

Sequence	PBM E-score
ATTGCTCA	-0.134
CAATCCGG	0.0027
CAGCTACC	-0.229
ATTTGCTC	-0.0361
AGATTGTG	-0.147
CACCTAAC	-0.164
CTGGTTTA	0.0282
TCTCGACA	0.00044
AGTACACA	0.18
GCTTTCGA	-0.046
CAACTGTA	-0.0431
CCACTTCG	0.0952
ATTGTTTC	0.0843
CCCGAGGA	0.0771
ATGTCAGG	-0.336
AGTCCGTA	0.242
GAAGAGCC	-0.035
CCCCTATC	-0.0953
ACTCGCAC	0.22
ACCGCACG	0.0338
ATATAGTG	0.105
GTTCACTA	0.148
CAATTGCG	-0.0414
CCCGTCGG	0.126
AATGTTCC	-0.12

Sequence	PBM E-score
AGGTCATC	-0.0582
GCCCCAAC	-0.0123
ACAGCCTA	-0.175
ATCAACTG	-0.132
AAGAGGTC	-0.207
GCCGTTAA	0.24
ACATAGCG	-0.133
CTTTGCAC	-0.035
CAGGAGAC	0.0295
GCATCCTA	-0.0684
ATAAGCCG	-0.178
GCGTTCAA	0.0639
CTTAAATC	-0.0752
TCAAGTAA	-0.225
CTCGTTCA	0.47
ATCCCAGG	-0.303
CCAGTTAC	-0.107
TGGCAAAA	-0.171
CCTAAAAA	-0.192
ACCAGACT	-0.124
ACAATTAT	0.132
ATTTGTGG	-0.0395
ACGAAGTG	0.288
TAGGTATA	0.181
AAATATGC	0.0499

Sequence	PBM E-score
CCGTATTA	0.316
GAATGGAC	-0.13
CCAACCGC	-0.12
AAATCCCA	-0.153
GGTGGCTA	-0.245
TCCGCCCA	-0.195
AAGATTAT	-0.0422
TAATACAA	0.0511
CCGGGTCC	-0.107
GATTATTA	0.0295
AATTTAGA	-0.0408
TTCTACAA	-0.0278
GTTGCAGA	-0.117
TCCCTTAA	-0.122
CATAGGCA	-0.258
CGCCTAGA	0.0521
GGTCCTAA	0.0335
TCCCCGAA	-0.245
GGGAAGTA	0.0119
CGCCCACG	-0.113
CCGCTGTA	-0.191
CAATCGCA	0.0817
ACGACTCA	0.238
TTAATTAA	-0.145
ATGGGCCG	-0.096

Sequence	PBM E-score
GTCACTTA	0.0991
GACGCATC	-0.00787
ACCCTGAC	-0.255
ATTCGTCA	-0.019
GGATCTGA	-0.00688
AGTGTGCG	0.0413
CCTTAGGC	-0.134
AGTATCTA	-0.122
ATGGTGTC	-0.129
ACGATTCC	0.289
CAATGGGA	-0.161
GTTATTGA	0.0873
ATGGTATC	0.109
GCTTAACA	-0.026
ATCGAGCC	0.0586
CGGCCCCA	-0.173
CTCACATA	-0.106
TAGTGGAA	-0.189
TCGGTGCA	0.00724
CATGCATA	-0.0391
TGAAGGCA	0.0109
CCGGCAGA	-0.0993
CGGCGATC	0.114
GCGCCGGA	0.105
GACCAGGC	-0.228

Sequence	PBM E-score
ACGCTTAT	0.0104
GTGCAGAA	0.104
AGATTAGC	-0.0627
AGAGACAG	-0.144
CTTGCGAC	0.0241
AAGGTCAA	-0.218
AACTCCAC	-0.128
GCAGAGCA	-0.0364
ATAGGGTA	0.034
GAGTCCTA	-0.216
CTAGGATC	-0.0532
ATTTGGAA	-0.148
TAATTCCA	-0.0387
AGAATGAT	-0.0132
CAATAGTA	-0.11
AAGTACTC	0.152
AAATCCAG	0.0493
GTTGTCCA	-0.0855
GTTCGTAA	0.427
AGCTGTGA	-0.0321
CTTTAGTA	0.0175
CTATACGC	0.403
CTGCTTCC	-0.214
AGAAGTTC	-0.106
GTCGAAAA	0.0767

Sequence	PBM E-score
ATAATGGC	-0.0692
CAGTCCCA	-0.312
CAACCTAG	-0.22
AGCCTGGG	-0.174
AATGCTCC	-0.233
ATCCGGGG	-0.0181
TAAAACTA	0.0191
AATTAACA	-0.0123
TGGCGACA	0.11
CACTGCCA	-0.00316
AAGGTGTA	-0.0872
CCATGCAA	-0.145
AAAGCATT	-0.0847
ACTGGCTG	-0.127
ACAACTCC	-0.151
GCGACTAC	0.0827
AACCCAGT	-0.0243
CGATCTAA	0.0461
GGGGGACC	-0.272
